Reference: PubChem BioAssay AID651820 (National Center for Advancing Translational Sciences (NCATS), 2012)
Several values for one entry are separate records, joined by “and”; a condition that tells them apart may be missing. Equal entries are not always repeated. Among all 340,000 compounds or so, about 12,000 (3.5%) were called active. This list was built around the results that the source calls inconclusive (neither active nor inactive); the mix of calls is not that of the screen. Calls follow the shape of the dose curve; as a rule, active = well fitted inhibition curve with a large enough effect; inconclusive = small, poorly fitted or top-dose-only effect, or another doubt; inactive = no such curve, though single readings can be large or run the other way. Potencies of inconclusive entries are doubtful fits and often do not repeat.

Assay: qHTS Assay for Inhibitors of Hepatitis C Virus (HCV)
Conditions: Huh7.5.1 HCVcc-Cre (HCVcc is cell-culture hepatitis C virus) infection, luciferase reporter, 44 h; series mostly up to 41.8 µM
Procedure, shortened: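 Luciferase read-out (15 sec integration) after a 15 min room-temperature substrate step quantifies HCVcc-Cre infection. Cells, 1,000 per well, had compound added 4 h post-plating, then virus at ~0.5 moi, and were cultured 44 h.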
Potency is read from the fitted curve at half-maximal effect; tags tell the direction and shape of the fitted curve.

Structure (SMILES)	Potency
Cc1cc(C(=O)CSc2n[nH]c(N)n2)c(C)n1-c1cccc(F)c1	inconclusive: 7.08 µM [inhibitor, partial curve]
CCNC(=O)C12CCC(C)(c3nc4cc(C)c(C)cc4nc31)C2(C)C (stereo not drawn)	inconclusive: 31.6 µM [inhibitor, single point]
O=C(c1ccc(COc2c(F)c(F)c(F)c(F)c2F)o1)N1CCN(Cc2ccc3c(c2)OCO3)CC1	inconclusive: 31.6 µM [inhibitor, single point]
CNC(=S)Nc1cc2oc3ccccc3c2cc1OC	active: 11.2 µM
CCC(CC)C(=O)N1CC(=O)Nc2ccc(Br)cc2C1c1ccccc1 (stereo not drawn)	inconclusive: 31.6 µM [inhibitor, single point]
Cc1cc(C)c(OCCCn2ccnc2)c(C)c1	inactive
O=C(Nc1cc(F)ccc1F)C1CCCN(c2ncnc3c2nc2n3CCCCC2)C1 (stereo not drawn)	inconclusive: 11.2 µM [inhibitor, partial curve]
COc1cc(/C=N/n2nnnc2N)cc(Cl)c1OC	inactive
CCN(CC)S(=O)(=O)c1cccc(NC(=O)c2cncc(Br)c2)c1	inconclusive: 6.31 µM [inhibitor, full curve]
CCOc1ccc(-c2[nH]ncc2-c2ccccc2)c(O)c1	inactive
O=C(C[C@H]1C[C@H](C(=O)N2CCOCC2)[C@@]2(CCC3CCCC3)c3[nH]c4cc(-c5ccco5)ccc4c3CCN2C1=O)NCCCn1ccnc1	inactive
Cc1ncc(S(=O)(=O)c2ccc(Cl)cc2)c(-c2ccccc2)n1	inconclusive: 0.562 µM [inhibitor, partial curve, poor fit]
CCCn1c(=NC(=O)c2ccco2)c(C(=O)OCC)cc2c(=O)n3ccccc3nc21	inconclusive: 2.51 µM [inhibitor, full curve]
NNC(=O)c1cc(-c2cccs2)nc2ccccc12	inactive
CC1(C)[C@@H](O)CC[C@]2(C)[C@H]3C(=O)C=C4[C@@H]5C[C@@](C)(C(=O)O)CC[C@]5(C)CC[C@@]4(C)[C@]3(C)CC[C@@H]12	inconclusive: 1.41 µM [inhibitor, partial curve]
CC(C)Sc1nc2c(c(=O)[nH]c(=O)n2C)n1Cc1ccc(Cl)cc1	inconclusive: 22.4 µM [inhibitor, single point]
COc1cccc(-n2nc(-c3ccnn3-c3cccc(Cl)c3)c(=O)n(C)c2=O)c1	inconclusive: 25.1 µM [inhibitor, single point]
CCOc1ccc(OCCC(=O)OCC(=O)Nc2ccc(C)c(S(=O)(=O)N3CCCCC3)c2)cc1	inconclusive: 31.6 µM [inhibitor, single point]
CC(C)[C@H](NC(=O)c1ccc(Cl)cc1)C(=O)OCC(=O)N1CCN(c2ccccc2)CC1	inconclusive: 35.5 µM [inhibitor, partial curve, poor fit]
CCN(CC)C(=O)COc1ccc(-c2nnc(N3CCCCC3)c3ccccc23)cc1	inconclusive: 31.6 µM [inhibitor, single point]
CCOC(=O)C1=C(C)NC(=O)/C1=C\N(C)C	inactive

Structure (SMILES)	Potency
Cc1ccc(S(=O)(=O)N2C[C@@H]3[C@H]4CC[C@H](C4)[C@@H]3[C@@H](C)[C@@H]2c2ccco2)cc1	inconclusive: 14.1 µM [inhibitor, single point]
FC(F)(F)c1nc(-c2cccs2)ncc1-c1nnnn1-c1ccc(Cl)cc1	active: 5.01 µM
Cc1ccc(C(=O)N/C(=C\c2cn(S(=O)(=O)N(C)C)c3ccccc23)C(=O)NCCCN2CCOCC2)cc1	inconclusive: 14.1 µM [inhibitor, single point]
Nc1ccccc1C(=O)OCc1ccc([N+](=O)[O-])cc1	inconclusive: 14.1 µM [inhibitor, single point]
CC1CCN(S(=O)(=O)c2ccc(NC(=O)C3CSC4(C)CCC(=O)N34)cc2)CC1 (stereo not drawn)	inconclusive: 31.6 µM [inhibitor, single point]
CC(C)CCCN1C(Nc2ccccc2)=NC[C@@H]1CC(C)C	inconclusive: 8.91 µM [inhibitor, single point]
COc1ccc(NC(=O)C2CCN(c3cc(C)nc(-c4ccccc4)n3)CC2)cc1	inconclusive: 3.55 µM [inhibitor, full curve, poor fit]
c1ccc(-c2nc(N3CCOCC3)c3ccccc3n2)nc1	inconclusive: 11.2 µM [inhibitor, partial curve]
CCCCn1c(N)c(N(CCOC)C(=O)c2cc(-c3ccc(OC)cc3)nc3ccccc23)c(=O)[nH]c1=O	inactive
O=C(COc1cccc2cccnc12)Nc1nccs1	inactive
CCN(CC)C(=S)SCc1csc(CC(=O)Nc2ccccc2C)n1	inconclusive: 11.2 µM [inhibitor, partial curve]
CCCCCCCCCCOC(=O)Cn1c(COc2cccc(C)c2)[n+](C)c2ccccc21	inconclusive: 14.1 µM [inhibitor, partial curve, poor fit]
CCCNC(=O)c1onc(CSc2ccc(F)cc2)c1C(=O)NC(C)C	inconclusive: 35.5 µM [inhibitor, partial curve, poor fit]
NC(N)=N/N=C/c1ccc(Cl)c([N+](=O)[O-])c1	inconclusive: 11.2 µM [inhibitor, partial curve]
CN(C)C(=O)c1c(C(F)(F)F)nn(C)c1Cl	inactive
CC1(C)CC(=O)C2=C(C1)OC(N)=C(C#N)C21CCC2(CC1)OCCO2	inconclusive: 3.55 µM [inhibitor, partial curve]
COc1ccc(C2=NOC(Cn3nc(-c4ccccc4)cc3C(=O)NCc3ccccc3OC)C2)cc1 (stereo not drawn)	inconclusive: 2.82 µM [inhibitor, full curve]
CCCCC(c1nnnn1Cc1ccco1)N1CCN(c2nc3ccccc3s2)CC1 (stereo not drawn)	inconclusive: 22.4 µM [inhibitor, single point]
O=S(=O)(c1cccc(Cn2nnc(-c3ccc(F)cc3)n2)c1)N1CCOCC1	inconclusive: 31.6 µM [inhibitor, single point]
O=C(NCCC1=CCCCC1)C1CCN(S(=O)(=O)c2cccc3cccnc23)CC1	inactive and inconclusive: 31.6 µM [inhibitor, single point]
COc1cccc(C(=O)CSc2nnc(-c3ccco3)n2CC2CCCO2)c1 (stereo not drawn)	inconclusive: 0.501 µM [inhibitor, partial curve, poor fit]

Structure (SMILES)	Potency
CCCN1Cc2cccc(C(=O)NC(CC(=O)OCC)c3ccc(OCC)c(OC)c3)c2C1=O (stereo not drawn)	inconclusive: 31.6 µM [inhibitor, single point]
Cn1c(=O)n(Cc2ccc(F)cc2)c(=O)c2c1nc1n2CCCN1Cc1ccccc1	inconclusive: 25.1 µM [inhibitor, single point]
COc1cccc(CCNC(=O)CC2C(=O)NCCN2CC(C)(C)C)c1 (stereo not drawn)	inactive
O=C(NCc1ccccc1)c1ccc(CS(=O)(=O)Cc2ccc(F)cc2)o1	inconclusive: 31.6 µM [inhibitor, single point]
C=C(C)c1cccc(C(C)(C)NC(=O)Nc2ccc(C)cn2)c1	active: 8.91 µM
CCOc1ccc(S(=O)(=O)N(CC(=O)NC2CCCCC2C)Cc2ccco2)cc1 (stereo not drawn)	inconclusive: 31.6 µM [inhibitor, single point]
C/C(=N\NC(=S)NCCc1ccccc1)c1cccs1	inconclusive: 25.1 µM [inhibitor, single point]
C=CCn1c(=O)/c(=C/c2ccc(Cl)cc2)s/c1=C(\C#N)c1nnc2n1CCCCC2	inconclusive: 31.6 µM [inhibitor, partial curve]
COc1ccc(C2CC(C)(c3ccc(OC)cc3)Nc3ccccc3N2)cc1 (stereo not drawn)	inconclusive: 31.6 µM [inhibitor, single point]
O=C(c1ccco1)N1CCN(c2c(-c3ccccc3)c3cc(Cl)ccc3[nH]c2=O)CC1	inconclusive: 5.62 µM [inhibitor, single point]
Cc1c(Cl)cccc1NC(=O)CCCN1C(=O)CCC1=O	inactive
CN=c1scc(-c2ccccc2F)n1/N=C/c1ccc(O)c(O)c1O	inactive
COc1ccc(C2C(Oc3ccccc3)C(=O)N2c2cc(C)ccc2C)cc1OC (stereo not drawn)	inactive
CCCc1cc(=O)[nH]c(SCC(=O)c2cc(C)n(CC3CCCO3)c2C)n1 (stereo not drawn)	inconclusive: 31.6 µM [inhibitor, single point]
CCOc1ccc(N=C(NN)c2ccc3ccccc3n2)cc1	inconclusive: 31.6 µM [inhibitor, single point]
COc1ccccc1-c1cccc([C@@H]2C[C@H]3[C@H](CON3C)CN2Cc2cc(Cl)cc(Cl)c2)c1	inconclusive: 3.55 µM [inhibitor, partial curve]
Fc1ccccc1Sc1ccccc1CNC1=NCCN1	inconclusive: 31.6 µM [inhibitor, single point]
COc1ccc(C(=O)Nc2ccc(NC(=O)c3cccc(OC)c3)cn2)cc1	inconclusive: 31.6 µM [inhibitor, single point]
C=CC[n+]1c(/C=C/c2ccc(OC(C)=O)c(OC)c2)ccc2ccccc21	inconclusive: 10 µM [inhibitor, single point]
COc1ccc(-c2noc(CN3CCN(c4ccccc4F)CC3)n2)cc1OC	inconclusive: 11.2 µM [inhibitor, single point]
CC[C@@H](CO)NC(=O)[C@@H]1C=C2c3cccc4[nH]cc(c34)C[C@H]2N(C)C1	inconclusive: 0.316 µM [inhibitor, full curve, poor fit]
